Measured values from PubChem BioAssay (NCATS).
The shares of active, inactive and inconclusive entries below differ from those in the screen. For some of these results: Where the call is inconclusive, the potency comes from a doubtful curve fit. Activity calls are given as the source filed them. Unless noted, the call rests on the fitted dose curve; in most records, active means well fitted curve in the direction sought with a large enough effect; inconclusive means small, poorly fitted or top-dose-only effect, or another doubt; inactive means no such curve, though single readings can be large; an effect the other way counts as inactive or inconclusive.

Assays:
[1] = Cell Viability - BJ (AID 421; calls by dose curve;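 further: potency means the concentration at half of the fitted maximal effect; cells exposed to compound for 40 hours at 37 °C before readout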); settings: BJ fibroblast viability, qHTS
Method in brief: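 Cytotoxicity in human BJ foreskin fibroblasts is scored as loss of cellular ATP after a 40-hour exposure, measured by luciferase luminescence. Controls are DMSO and 100 uM tamoxifen.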

[2] = Cell Viability - Hek293 (AID 427;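 active means compounds whose dose-response curve shows a full or clear partial loss of cell viability, called from curve shape rather than a numeric limit; inconclusive means weak partial curves or an effect only at the top dose; inactive means no dose-dependent loss of viability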;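 further: potency means the concentration at half of the fitted maximal effect; cells exposed to compound for 40 hours at 37 °C before reading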); settings: qHTS
Method in brief: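 qHTS, human embryonic kidney (adenovirus-transformed) cells; 40 hr cpd, 37 °C; CellTiter-Glo ATP luminescence. Norm: DMSO = 0, 100 uM tamoxifen = 100% inhibition. Hill-fit AC50.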

[3] = Cell Viability - MRC5 (AID 434; calls by dose curve;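 further: potency means the concentration at half of the fitted maximal effect; potency reflects cytotoxicity seen as loss of intracellular ATP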); settings: MRC5 lung fibroblast viability, qHTS
Method in brief: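 Decrease in intracellular ATP, quantified by luciferase light output, reflects compound toxicity toward MRC5 cells exposed for 40 hr in complete culture medium. Concentration-response curves, scaled between DMSO and 100 uM tamoxifen, gave AC50 values.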

[4] = Cell Viability - SK-N-SH (AID 435; calls by dose curve;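 further: potency means the concentration at half of the fitted maximal effect; compound exposure lasted 40 h at 37 °C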); settings: SK-N-SH neuroblastoma cell viability qHTS
Method in brief: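 Human neuroblastoma line, 40 h exposure at 37 °C, ATP quantified via luciferase luminescence; DMSO and 100 uM tamoxifen define 0 and 100% inhibition for AC50 fitting.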

[5] = Cell Viability - N2a (AID 540); settings: N2a mouse neuroblastoma cell viability; activity change, negative = cytotoxicity: at 92.2 µM (top of the series);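 further: cells exposed to compound for 40 h at 37 °C; plate controls were DMSO alone for no effect and tamoxifen control for full effect; nearly all actives have a fitted effect of over 45% in size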
Method in brief: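 N2a mouse neuroblastoma, 1500 cells/well, 5 hr settle; compound 40 hr, 37 °C; CellTiter-Glo 20 min RT; luminescence; Hill-fit AC50.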

[6] = Cell Viability - NIH 3T3 (AID 541); settings: NIH 3T3 cell viability, qHTS; activity change, negative = cytotoxicity: at 92.2 µM (top of the series);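 further: plate controls were DMSO alone for no effect and tamoxifen positive control for full effect; nearly all actives have a fitted effect of over 25% in size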
Method in brief: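 qHTS format; 40 hr compound exposure, 37 °C; CellTiter-Glo luminescence (cellular ATP) read-out after 20 min at RT. Decrease in ATP = cytotoxicity; AC50 from standard Hill fit.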

[7] = Cell Viability - Renal Proximal Tubule (AID 545); settings: renal proximal tubule cells viability; activity change, negative = cytotoxicity: at 91.7 µM (top of the series) unless noted; further: nearly all actives have a fitted effect of over 40% in size
Method in brief: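 In this qHTS format, normal rat kidney-derived proximal tubule cells in complete culture medium receive compound titrations, then sit 40 hours at 37 °C before luciferase-based ATP quantitation; potency is reported as AC50 from concentration-response curves.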

[8] = Cellular Toxicity (caspase-3) HepG2 (AID 654); settings: HepG2 caspase-3 activation, luminescence; series mostly up to 92.2 µM; further: potency means the concentration at half of the fitted maximal effect
Method in brief: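 Luminescent Caspase-Glo 3/7 readout after 16 hr compound exposure of human hepatocellular carcinoma HepG2 cells at 37 °C; qHTS concentration-response, normalized DMSO = 0%, 100 uM tamoxifen = 100%; AC50 by standard Hill equation.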

[9] = Cellular Toxicity (caspase-3) Jurkat (AID 655); settings: Jurkat caspase-3 activation, luminescence; caspase-3 activation: at 92.2 µM (top of the series), DMSO = 0%, tamoxifen = 100%;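 further: cells exposed to compound for 16 h at 37 °C before reading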
Method in brief: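 qHTS in human Jurkat T-cell leukemia line: 16 hr compound treatment at 37 °C, caspase-3/7 activity measured by Caspase-Glo luminescence. AC50 derived from Hill equation.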

[10] = Cellular Toxicity (caspase-3) SHSY5Y (AID 657); settings: SH-SY5Y caspase-3 activation; series mostly up to 91.7 µM;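 further: potency means the concentration at half of the fitted maximal effect; cells exposed to compound for 16 hours at 37 °C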
Method in brief: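 Readout: caspase-cleaved peptide-aminoluciferin substrate driving luciferase light in SH-SY5Y neuroblastoma cells after 16 h treatment. Response normalized to DMSO and 10 uM staurosporine controls.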

[11] = Cellular Toxicity (caspase-3) MRC-5 (AID 659); settings: MRC-5 cells, luminescence; Potency: caspase-3 activation; series mostly up to 91.7 µM; further: potency means the concentration at half of the fitted maximal effect
Method in brief: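 Apoptosis readout in MRC-5 cells: luciferase light generated after caspase 3/7 cleaves a peptide-aminoluciferin substrate, measured post 16 hr compound incubation at 37 °C.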

[12] = Cellular Toxicity (caspase-3) Mesangial (AID 660); settings: mesangial cells; Potency: caspase-3 activation; caspase-3 activation: at 91.7 µM (top of the series), normalized: DMSO 0%, 100 µM tamoxifen 100%;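 further: combined caspase 3 and 7 activity read by Caspase-Glo luminescence; cells exposed to compound for 16 h before the caspase read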
Method in brief: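 Luminescent Caspase-Glo 3/7 readout (aminoluciferin substrate cleavage, 20 min RT) after 16 h compound exposure at 37 °C of normal human mesangial cells. Signal increase normalized between DMSO basal and 100 uM tamoxifen; Hill-equation AC50.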

[13] = Cellular Toxicity (caspase-3) Hek293 (AID 664); settings: HEK293 caspase-3 activation, DMSO = 0%, 100 µM tamoxifen = 100%; at 92.2 µM (top of the series);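 further: cells exposed to compound for 16 h at 37 °C before readout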
Method in brief: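 Luminescent Caspase-Glo 3/7 readout (aminoluciferin release) in HEK293 cells after 16 h compound treatment, 37 °C. Normalization: DMSO = basal, 100 uM tamoxifen = 100% stimulation. Concentration-response fitted with standard Hill equation for AC50.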

[14] = Cellular Toxicity (caspase-3) N2a (AID 665); settings: N2a cells, luminescence, normalized: DMSO 0%, 10 µM staurosporine 100%; at 92.2 µM (top of the series);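 further: compound exposure lasted 16 h at 37 °C before readout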
Method in brief: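 Luminescent Caspase-Glo 3/7 readout in N2a mouse neuroblastoma cells after 16 h compound exposure at 37 °C. Signal scaled to DMSO (basal) and 10 uM staurosporine (100%). Concentration-response fitted with Hill equation for AC50.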

[15] = Cellular Toxicity (caspase-3) Renal Proximal Tubule (AID 667); settings: renal proximal tubule cells; at 91.7 µM (top of the series) unless noted;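 further: cells exposed to compound for 16 hours at 37 °C before detection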
Method in brief: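 Caspase-Glo 3/7 read-out, rat primary kidney proximal tubule cells. Compound exposure 16 h, 37 °C; detection after 1 h at RT. Activity scaled to DMSO and 10 uM staurosporine.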

[16] = MultiTox-Fluor Cytotoxicity Assay - LYMP1-001 - Live Cells (AID 947); settings: LYMP1-001 lymphoblastoid cells, live-cell protease fluorescence viability; series mostly up to 92.2 µM; further: potency means the concentration at half of the fitted maximal effect
[17] = MultiTox-Fluor Cytotoxicity Assay - LYMP1-002 - Live Cells (AID 955); settings: LYMP1-002 lymphoblastoid live-cell protease fluorescence viability; series mostly up to 46.1 µM;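 further: potency means the concentration at half of the fitted maximal effect; cells exposed to compound for 16 hours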
Method in brief: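 LYMP1-002 lymphoblastoid cells; 2500 cells/well; 16 hr compound exposure, 37 C; MultiTox-Fluor reagent 60 min RT; live-cell fluorescence Ex/Em=405/510; qHTS concentration-response, Hill-equation AC50; tetraoctylammonium bromide positive control.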

[18] = MultiTox-Fluor Cytotoxicity Assay - LYMP1-002 - Dead Cells (AID 960); settings: LYMP1-002 lymphoblastoid cells, dead-cell protease fluorescence; cytotoxicity (dead cells): at 46.1 µM (top of the series); further: potency means the concentration at half of the fitted maximal effect; nearly all actives have a fitted effect of over 60% in size
Method in brief: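 Readout: fluorescence at 485/520 from cell-impermeant bis-AAF-R110 cleaved by proteases leaking from damaged cells. LYMP1-002 lymphoblastoid line, 16 hr compound treatment at 37 C, concentration-response in qHTS format; Hill-equation AC50 values.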

[19] = Cell Viability - LYMP2-009 (AID 968); settings: LYMP2-009 lymphoblastoid cell viability; series mostly up to 92.2 µM;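 further: potency means the concentration at half of the fitted maximal effect; cells exposed to compound for 24 h at 37 °C; nearly all actives have a fitted effect of over 55% in size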
Tags describe the fitted curve by direction and shape.

CCCCCCCCCc1ccc(O)cc1
active: activity change, negative = cytotoxicity [7] -80.8% [at 91.7 µM, primary cells of rat origin] | caspase-3 activation [14] 98.6% | caspase-3 activation [15] 172% [at 91.7 µM, primary cells freshly taken from rat, solvent-only wells 0%, staurosporine 100%] | Potency [18] 25.1 µM
inconclusive: Potency [1] 161 µM [partial curve] | Potency [2] 103 µM [single point] | Potency [3] 92 µM [single point] | Potency [4] 76 µM [single point] | activity change, negative = cytotoxicity [5] -52.3% | activity change, negative = cytotoxicity [6] -41.1% | Potency [8] 79.4 µM [rising, single point] | caspase-3 activation [9] 58.3% | Potency [10] 50.1 µM [rising, partial curve] | Potency [11] 79.4 µM [rising, single point] | caspase-3 activation [12] 30.5% | caspase-3 activation [13] 221% | Potency [16] 79.4 µM [cytotoxic, single point] | Potency [17] 31.6 µM [cytotoxic, single point] | Potency [19] 79.4 µM [cytotoxic, single point]
